# Test results as given in publication PMC9911399, “Two distinct binding modes provide the RNA-binding protein RbFox with extraordinary sequence specificity”.
# Where a chain is given by its changes, count along the chain named. Some of the results follow.
# T1: RBFOX1 RRM RbFoxmut (Fox-RRM*) (Homo sapiens, UniProt Q9NWB1 109-208, R118D;E147R;N151S;E152T)
# T1 sequence: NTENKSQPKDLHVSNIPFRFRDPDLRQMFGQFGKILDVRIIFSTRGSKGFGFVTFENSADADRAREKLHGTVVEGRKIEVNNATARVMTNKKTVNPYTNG
# B1: AAUGGCU (DNA:RNA)
# RNA: GGGAGACCGGAAUUCAGAUUGUCCAAUGGCUUUAAAUCCCGUCGUAGCCACCA
# DNA 1: CAATCTGAATTCCGGTCTCCC
# DNA 2: TGGTGGCTACGACGGGATT
# B2: CUAGGAC (DNA:RNA)
# RNA: B1 RNA with A25C, A26U, U27A, C30A, U31C
# DNA 1: CAATCTGAATTCCGGTCTCCC
# DNA 2: TGGTGGCTACGACGGGATT
# B3: GUGCAUG (DNA:RNA)
# RNA: GGGAGACCGGAAUUCAGAUUGUCCGUGCAUGUUAAAUCCCGUCGUAGCCACCA
# DNA 1: CAATCTGAATTCCGGTCTCCC
# DNA 2: TGGTGGCTACGACGGGATT
# B4: AUGAAAG (DNA:RNA)
# RNA: B3 RNA with G25A, C28A, U30A
# DNA 1: CAATCTGAATTCCGGTCTCCC
# DNA 2: TGGTGGCTACGACGGGATT
# B5: CCUCUCG (DNA:RNA)
# RNA: B1 RNA with A25C, A26C, G28C, G29U, U31G
# DNA 1: CAATCTGAATTCCGGTCTCCC
# DNA 2: TGGTGGCTACGACGGGATT
# B6: CCUCGGG (DNA:RNA)
# RNA: B1 RNA with A25C, A26C, G28C, C30G, U31G
# DNA 1: CAATCTGAATTCCGGTCTCCC
# DNA 2: TGGTGGCTACGACGGGATT
# B7: GACCCAU (DNA:RNA)
# RNA: B1 RNA with A25G, U27C, G28C, G29C, C30A
# DNA 1: CAATCTGAATTCCGGTCTCCC
# DNA 2: TGGTGGCTACGACGGGATT
# B8: AUCCCAU (DNA:RNA)
# RNA: B1 RNA with A26U, U27C, G28C, G29C, C30A
# DNA 1: CAATCTGAATTCCGGTCTCCC
# DNA 2: TGGTGGCTACGACGGGATT
# B9: UGUAUAU (DNA:RNA)
# RNA: B1 RNA with A25U, A26G, G28A, G29U, C30A
# DNA 1: CAATCTGAATTCCGGTCTCCC
# DNA 2: TGGTGGCTACGACGGGATT
# B10: UCUGCCU (DNA:RNA)
# RNA: B1 RNA with A25U, A26C, G29C
# DNA 1: CAATCTGAATTCCGGTCTCCC
# DNA 2: TGGTGGCTACGACGGGATT
# B11: GACAGGA (DNA:RNA)
# RNA: B1 RNA with A25G, U27C, G28A, C30G, U31A
# DNA 1: CAATCTGAATTCCGGTCTCCC
# DNA 2: TGGTGGCTACGACGGGATT
# B12: UGUGUCA (DNA:RNA)
# RNA: B1 RNA with A25U, A26G, G29U, U31A
# DNA 1: CAATCTGAATTCCGGTCTCCC
# DNA 2: TGGTGGCTACGACGGGATT
# B13: GUCCCUA (DNA:RNA)
# RNA: B3 RNA with G27C, A29C, G31A
# DNA 1: CAATCTGAATTCCGGTCTCCC
# DNA 2: TGGTGGCTACGACGGGATT
# B14: GGGCCUC (DNA:RNA)
# RNA: B3 RNA with U26G, A29C, G31C
# DNA 1: CAATCTGAATTCCGGTCTCCC
# DNA 2: TGGTGGCTACGACGGGATT
# B15: CAAGCCA (DNA:RNA)
# RNA: B1 RNA with A25C, U27A, G29C, U31A
# DNA 1: CAATCTGAATTCCGGTCTCCC
# DNA 2: TGGTGGCTACGACGGGATT
# B16: CCUACAC (DNA:RNA)
# RNA: B1 RNA with A25C, A26C, G28A, G29C, C30A, U31C
# DNA 1: CAATCTGAATTCCGGTCTCCC
# DNA 2: TGGTGGCTACGACGGGATT
# B17: UUCAGUA (DNA:RNA)
# RNA: B3 RNA with G25U, G27C, C28A, A29G, G31A
# DNA 1: CAATCTGAATTCCGGTCTCCC
# DNA 2: TGGTGGCTACGACGGGATT
# B18: ACAACCU (DNA:RNA)
# RNA: B1 RNA with A26C, U27A, G28A, G29C
# DNA 1: CAATCTGAATTCCGGTCTCCC
# DNA 2: TGGTGGCTACGACGGGATT
# B19: UCUCACC (DNA:RNA)
# RNA: B1 RNA with A25U, A26C, G28C, G29A, U31C
# DNA 1: CAATCTGAATTCCGGTCTCCC
# DNA 2: TGGTGGCTACGACGGGATT
# B20: GUAUCGC (DNA:RNA)
# RNA: B3 RNA with G27A, C28U, A29C, U30G, G31C
# DNA 1: CAATCTGAATTCCGGTCTCCC
# DNA 2: TGGTGGCTACGACGGGATT
# B21: AUGUCGA (DNA:RNA)
# RNA: B3 RNA with G25A, C28U, A29C, U30G, G31A
# DNA 1: CAATCTGAATTCCGGTCTCCC
# DNA 2: TGGTGGCTACGACGGGATT
# B22: UAUUACU (DNA:RNA)
# RNA: B1 RNA with A25U, G28U, G29A
# DNA 1: CAATCTGAATTCCGGTCTCCC
# DNA 2: TGGTGGCTACGACGGGATT
# B23: UUCAUCU (DNA:RNA)
# RNA: B1 RNA with A25U, A26U, U27C, G28A, G29U
# DNA 1: CAATCTGAATTCCGGTCTCCC
# DNA 2: TGGTGGCTACGACGGGATT
# B24: CGGUGCU (DNA:RNA)
# RNA: B1 RNA with A25C, A26G, U27G, G28U
# DNA 1: CAATCTGAATTCCGGTCTCCC
# DNA 2: TGGTGGCTACGACGGGATT
# B25: GAAAGGC (DNA:RNA)
# RNA: B1 RNA with A25G, U27A, G28A, C30G, U31C
# DNA 1: CAATCTGAATTCCGGTCTCCC
# DNA 2: TGGTGGCTACGACGGGATT
# B26: GCAGGCG (DNA:RNA)
# RNA: B1 RNA with A25G, A26C, U27A, U31G
# DNA 1: CAATCTGAATTCCGGTCTCCC
# DNA 2: TGGTGGCTACGACGGGATT
# B27: UGAACCU (DNA:RNA)
# RNA: B1 RNA with A25U, A26G, U27A, G28A, G29C
# DNA 1: CAATCTGAATTCCGGTCTCCC
# DNA 2: TGGTGGCTACGACGGGATT
# B28: GCGUCUA (DNA:RNA)
# RNA: B3 RNA with U26C, C28U, A29C, G31A
# DNA 1: CAATCTGAATTCCGGTCTCCC
# DNA 2: TGGTGGCTACGACGGGATT
# B29: AAGAAAC (DNA:RNA)
# RNA: B1 RNA with U27G, G28A, G29A, C30A, U31C
# DNA 1: CAATCTGAATTCCGGTCTCCC
# DNA 2: TGGTGGCTACGACGGGATT
# B30: CGUGGCG (DNA:RNA)
# RNA: B1 RNA with A25C, A26G, U31G
# DNA 1: CAATCTGAATTCCGGTCTCCC
# DNA 2: TGGTGGCTACGACGGGATT
# B31: CGUGUAG (DNA:RNA)
# RNA: B1 RNA with A25C, A26G, G29U, C30A, U31G
# DNA 1: CAATCTGAATTCCGGTCTCCC
# DNA 2: TGGTGGCTACGACGGGATT
# Molecular target: T1, RBFOX1 RRM RbFoxmut (Fox-RRM*)
# Experiment: EMSA; HiTS-Eq, 1 nM pool, 10 min; buffer printed only for the single-RNA assays: 10 mM Tris pH 7.5, 150 mM NaCl, 3.4 mM EDTA, 0.001% NP-40, 30 C
# Conditions: tags: His6 N-terminal (pET28a); label: 5' 32P
# How it was run: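 Purified wild-type or mutant RbFox RRM at increasing concentrations was equilibrated with 1 nM of 5′-radiolabelled RNA carrying 7 randomized nucleotides for 10 min in 50 µL. Unbound RNA was separated by 8% native PAGE and sequenced. Relative association constants came from read-count changes of each RNA species compared with the control reaction, normalised to the cognate motif.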
row,Binder,binding signal
1,B1,0.111 KA relative to UGCAUGU
2,B2,0.0548 KA relative to UGCAUGU
3,B3,1.39 KA relative to UGCAUGU
4,B4,0.171 KA relative to UGCAUGU
5,B5,0.0748 KA relative to UGCAUGU
6,B6,0.0968 KA relative to UGCAUGU
7,B7,0.0589 KA relative to UGCAUGU
8,B8,0.0886 KA relative to UGCAUGU
9,B9,0.138 KA relative to UGCAUGU
10,B10,0.0943 KA relative to UGCAUGU
11,B11,0.0728 KA relative to UGCAUGU
12,B12,0.199 KA relative to UGCAUGU
13,B13,0.0703 KA relative to UGCAUGU
14,B14,0.122 KA relative to UGCAUGU
15,B15,0.079 KA relative to UGCAUGU
16,B16,0.107 KA relative to UGCAUGU

row,Binder,binding signal
1,B17,0.118 KA relative to UGCAUGU
2,B18,0.064 KA relative to UGCAUGU
3,B19,0.0699 KA relative to UGCAUGU
4,B20,0.312 KA relative to UGCAUGU
5,B21,0.138 KA relative to UGCAUGU
6,B22,0.109 KA relative to UGCAUGU
7,B23,0.0739 KA relative to UGCAUGU
8,B24,0.0738 KA relative to UGCAUGU
9,B25,0.0521 KA relative to UGCAUGU
10,B26,0.122 KA relative to UGCAUGU
11,B27,0.121 KA relative to UGCAUGU
12,B28,0.099 KA relative to UGCAUGU
13,B29,0.08 KA relative to UGCAUGU
14,B30,0.158 KA relative to UGCAUGU
15,B31,0.138 KA relative to UGCAUGU
